The whole screen tested about 310,000 compounds, of which about 18,000 (5.8%) were called active. The shares of active, inactive and inconclusive entries below differ from those in the screen. The call rests on the fitted dose curve; in most records, active means well fitted inhibition curve with a large enough effect; inconclusive means small, poorly fitted or top-dose-only effect, or another doubt; inactive means no such curve, though single readings can be large or run the other way. Potencies of inconclusive entries are left out as doubtful fits.
Experiment: Primary qHTS for delayed death inhibitors of the malarial parasite plastid, 48 hour incubation
Conditions: P. falciparum luciferase growth in erythrocytes; series mostly up to 28.7 µM
Procedure, shortened: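 Luminescence readout; reporter = integrated firefly luciferase in P. falciparum. RBC culture at 2% hematocrit, 0.1% parasitemia final, 37 C/5% CO2; decreased signal taken as growth inhibition.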
Potency means the concentration at half of the fitted maximal effect; tags describe the fitted curve by direction and shape.

Compound | Potency
COc1cc(F)cc(C2=CC(=O)C[C@H](c3ccc(F)cc3)C2)c1 | inconclusive [inhibitor, single point]
Cc1cccc(CS(=O)(=O)Cc2ccc(C(=O)NC3CCCC3)o2)c1 | inconclusive [inhibitor, partial curve, poor fit]
O=C(CCl)NCCCN(C(=O)C(Cl)Cl)c1ccc([N+](=O)[O-])cc1 | active: 6.57 µM
O=C(CN1CCCC1)Nc1ccc(OC(F)(F)F)cc1 | inactive
Cc1nn(CC(=O)N2CCCCCC2)c(=O)c2cc3occc3n12 | inactive
COc1ccc(O[C@H]2C=C[C@@H](c3ccccc3)O[C@@H]2COC(=O)CC/C(C)=N/O[C@@H](C)CN2CCCCc3nc(C)c(C)cc32)cc1 | active: 5.86 µM
CCOc1ccccc1O[C@@H](c1ccccc1)[C@@H]1CNCCO1 | inconclusive [inhibitor, partial curve]
CCOC(=O)C1=c2s/c(=C\c3ccncc3)c(=O)n2C(N)=C(C(=O)OC)C1c1ccncc1 (stereo not given) | inactive
O=C(O)Cc1ccc(NS(=O)(=O)c2c(Cl)cccc2Cl)cc1 | inconclusive [inhibitor, partial curve, poor fit]
COc1cccc(CNC(=O)Cc2csc(NC(=O)Nc3ccccc3OC)n2)c1 | inconclusive [inhibitor, single point]
COc1ccc(C(=O)NNS(=O)(=O)c2ccccc2)cc1 | inactive
CCCc1cc(=O)oc2cc(OC3CCCCC3=O)ccc12 (stereo not given) | inactive
CC1CC(C)CN(S(=O)(=O)c2ccc(NC(=O)C3CSC4(C)CCC(=O)N34)cc2)C1 (stereo not given) | inconclusive [inhibitor, single point]
CCCCc1ccc(Nc2nc(N3CCOCC3)nc(N3CCOCC3)n2)cc1 | inconclusive [inhibitor, partial curve]
COc1ccc(OCC(=O)Nc2ccc(S(=O)(=O)N3CCCCCC3)cc2)cc1 | inconclusive [inhibitor, single point]
Cc1ccccc1-n1c(CSC(=N)N)nc2ccccc2c1=O | inactive
CC1(C)CC(Nc2ccc(Nc3ccccc3)cc2)CC(C)(C)N1 | active: 3.29 µM
COc1cc(-n2c(N)c(C(=O)NCc3ccco3)c3nc4ccccc4nc32)cc(OC)c1OC | active: 11.7 µM
Cc1ccc(NS(=O)(=O)c2ccc3c(c2)CC(=O)N3)c(C)c1 | inactive
Cc1cccc(NC(=O)CSc2nnnn2-c2ccc3c(c2)OCCO3)n1 | inconclusive [inhibitor, single point]
